Test results: ChEMBL document CHEMBL4888484, “Replenishing the malaria drug discovery pipeline: Screening and hit evaluation of the MMV Hit Generation Library 1 (HGL1) against asexual blood stage Plasmodium falciparum ,using a nano luciferase reporter read-out” (2022)
The campaign covered roughly 4,800 compounds. About 410 (8.5%) showed an effect of 50% or more. The list shows a part of the results.

Each molecule was assayed on Plasmodium falciparum (assay: Confirmatory screen in NF54 pLDH assay, in single point, at 2uM, 72h). Conditions: timepoint 72 hour.
Format: functional, Erythrocyte

Row | SMILES | % Inhibition
1 | COc1ccccc1CNC(=O)c1nnn(-c2ccc3noc(-c4ccc(Cl)cc4)c3c2)c1C | 3%
2 | O=S(=O)(c1ccc2nncn2c1)N(Cc1cccc(Cl)c1)c1ccccc1 | 9%
3 | C#CCN1C(=O)N[C@@](CC)(C(C)C)C1=O | 12%
4 | CC(C)(C)N(Cc1ccc(F)cc1)C(=O)[C@H]1CCOC1 | 15%
5 | O=C(Nc1cccc(C(F)(F)F)c1)C(Oc1ccccc1)Oc1ccccc1 | -19%
6 | COc1ccc(CNC(=O)Nc2ccc3c(c2)N(C(=O)c2ccccc2)CCC3)cc1OC | 11%
7 | CC(C)(C)n1nc2nc(NCCN3CCCCC3)nc(-c3ccc(F)c(Cl)c3)c2c1N | 76%
8 | Cn1ccnc(N[C@@H](COc2ccccc2F)c2ccccc2)c1=O | 3%
9 | FC(F)(F)C1CN(c2nc(-c3ccccn3)nc3c2CCC3)C1 | 54%
10 | CC(=O)N1CCc2cc(-c3ccc(C(=O)NCCC(C)C)cc3)ccc21 | 11%
11 | CCN(CC)CCCNC(=O)[C@H]1CCCN(c2nc3ccccc3n(Cc3ccccc3)c2=O)C1 | 12%
12 | CC1=C2CC(C3(N)CC4(CC4)NC3=O)C(O)CC2(C)CCC1 (centres undefined) | 5%
13 | O=C(NCCOc1ccccc1)c1ccc(C(=O)NCCOc2ccccc2)s1 | 3%
14 | COc1cccc(COc2cccc(Cl)c2CNc2nnc(C(F)(F)F)o2)c1 | 11%
15 | Cc1ccc(Nc2nc(C)c(C(=O)NCc3cccc(Br)c3)s2)c(C)c1 | -19%
16 | CC1(C)Oc2ccc(NC(=O)C3CCCCC3)cc2NC1=O | 15%
17 | Fc1cccc(F)c1-n1c(CN2CCCCC2)csc1=S | -5%
18 | CCN(CCC1CCN(C(=O)Nc2ccc(OC3CCOCC3)c(C)c2)CC1)CC(C)C | -3%
19 | CCC[N+]1(CC#C[C@@](O)(c2ccccc2)C2(C)CCCC2)CCCCC1 | 42%
20 | CC(C)c1ccc(Oc2cnn(-c3cccc(Cl)c3)c(=O)c2Nc2cccc(C(=O)NC3CC3)c2)cc1 | 54%
21 | CCc1nnc2ccc(S(=O)(=O)Nc3ccc(F)c(F)c3)cn12 | -8%
22 | Cc1noc(NCc2cc(C)oc2C)n1 | -17%
23 | Cc1ccc(-n2nc(-c3ccccc3)c3cnc4cc(F)ccc4c32)cc1C | 6%
24 | COc1ccc(-n2nc(C)c3c2NC(=O)C[C@@H]3c2ccc3c(c2)OCO3)cc1 | -10%
25 | Cc1nn(C)c(Cl)c1CNC[C@@H](c1ccsc1)N(C)C | 9%

Row | SMILES | % Inhibition
26 | COc1ccc(-c2nc3nnnn3cc2C)cc1OC | 12%
27 | COCCN(Cc1c(-c2ccccc2)noc1N1CCN(C)CC1)C(=O)c1ccc(C)cc1 | 12%
28 | CCN1c2cc(C(=O)NCc3ccncc3)ccc2C(=O)N2CCCC[C@H]21 | 5%
29 | CCc1nnc(NC(=O)NCc2c[nH]nn2)s1 | -6%
30 | Cc1ccc(Cn2c(=O)c(C(=O)NCc3ccc4c(c3)OCO4)nn(-c3ccc(C(C)C)cc3)c2=O)cc1 | 52%
31 | CCS(=O)(=O)N1CCN(c2nc(Cc3ccc(C)cc3)nc3c2c(C)nn3-c2ccccc2)CC1 | -27%
32 | Cc1cnc(C2CC2)n1CCNC(=O)C1(C)CCCCC1 | 1%
33 | Cc1nn(C)c2c(N3CCc4ccccc4C3)nc(C3CC3)nc12 | -7%
34 | N#C[C@@H](C(=O)NCc1cccnc1)c1nc(-c2ccccc2)cs1 | 5%
35 | COc1ccc(C(=O)NCN2CCN(c3ccc(F)cc3)CC2)cc1OC | -4%
36 | C[C@@H](CCNS(=O)(=O)c1c(Cl)cc(F)cc1Br)CC(=O)O | 8%
37 | Cc1cc(-c2cc(O)cc(CC[C@H]3CCCCN3)c2)ccn1 | 91%
38 | COc1ccc([C@@H]2COc3ccccc3C(=O)N2)cc1 | 1%
39 | CCC1Cn2c(C(=O)NC(C)Cc3ccco3)cc3cccc(c32)O1 (centres undefined) | -13%
40 | CCOc1cc(CNCCOC)ccc1O | 11%
41 | COC[C@@H]1CCCN1c1ccc2c(c1)CNCC(=O)N1CC[C@@H](CC(=O)NCCN3CCOCC3)[C@@H](/C=C/CO2)C1 | -11%
42 | O=C(Nc1ccc(N2CCOCC2)c(F)c1)OCc1ccccc1 | 2%
43 | CCOCCC1(CNC(=O)c2cc(C)n[nH]2)CCC1 | 2%
44 | CCc1cccc(NC(=O)Cn2ccc3ccc(-c4nnc(C)o4)cc32)c1 | 89%
45 | COC(=O)CN(c1ccccc1)S(=O)(=O)c1ccc2nncn2c1 | 11%
46 | Cn1nncc1C(=O)Nc1ccc(Br)c(C(F)(F)F)c1 | -1%
47 | CN(C(=O)c1ccc(F)cc1)[C@H]1CCOC1 | -10%
48 | CC(C)CCC(=O)NCC(=O)Nc1ccc(C#N)cc1 | -15%
49 | COc1cccc(NC(=O)[C@H](Cc2ccccc2)NC(=O)c2cccnc2)c1 | -20%
50 | O=C(Nc1cccnc1)c1ccc(-c2ccc(Cl)c(Cl)c2)o1 | 89%

Row | SMILES | % Inhibition
51 | COC(=O)[C@H](C#N)c1ccc(C#N)cn1 | 6%
52 | C[C@H](NC(c1ccccc1)c1ccccc1)c1nnc(-c2cccs2)o1 | 7%
53 | CC(C)Cn1cc2c(C(F)(F)F)cc(=O)n(CCC(=O)Nc3cc(F)ccc3F)c2n1 | 7%
54 | O=C(CO[C@H]1CCCc2c[nH]nc21)NC(C1CC1)C1CC1 | -6%
55 | CCOc1ccc(N(Cc2ccccc2F)S(=O)(=O)c2ccc3nnc(C)n3c2)cc1 | -7%
56 | CN1CCN(C(=O)[C@H](C(=O)c2cccc(Cl)c2)n2ccccc2=O)CC1 | -13%
57 | COc1cccc(Cn2c(=O)c3sccc3n(CC(=O)NCc3ccc(F)cc3F)c2=O)c1 | 13%
58 | CCOC(=O)C1=CS/C(=C2/C(=S)C(C)(C)Nc3c(OCC)cccc32)S1 | -7%
59 | COc1cccc(CN2CCN(c3ccc(F)cc3)C2=O)c1 | -3%
60 | COc1ccc(Cl)cc1C(=O)Nc1cc(C2CC2)nn1-c1nc(C)cc(=O)[nH]1 | 72%
61 | Cc1c(NC(=O)c2n[nH]cc2Br)c(=O)n(-c2ccccc2)n1C | 7%
62 | COc1cccc(-c2cn(C)c3c(=O)n(CC(=O)Nc4ccc(C(F)(F)F)cc4)cnc23)c1 | 9%
63 | Cc1[nH]nc(C(F)(F)F)c1NS(=O)(=O)c1cccs1 | 5%
64 | Cc1cc(=O)n(CC(=O)Nc2cc(C)on2)c(-c2ccc(F)cc2)n1 | 2%
65 | c1ccc2oc(N3CCCCCCC3)nc2c1 | 3%
66 | COc1ccc(N2CCN(Cc3cc(-c4ccc(Cl)cc4)no3)CC2)cc1 | -19%
67 | CCC(C)(C)c1ccc(OCC(=O)Nc2cccc(NC(=O)C3=NN(c4c(Cl)cc(Cl)cc4Cl)C(=O)C3)c2)c(C(C)(C)CC)c1 | -13%
68 | COC(=O)C[C@H](NC(=O)c1ccc2ccccc2n1)C1CC1 | -18%
69 | COc1ccc(-c2c(-c3cccc(OC)c3)[nH]c3c2c(=O)[nH]c(=O)n3C)cc1 | 97%
70 | Cc1nn2cnnc2c(C)c1C/C=C/c1ccccc1 | 3%
71 | Cc1cc(F)ccc1CS(=O)(=O)N1CCC(CN2CCOCC2)CC1 | 0%
72 | Cc1n[nH]c([C@H]2CN(C(=O)OCC(F)(F)F)C[C@@H]2C2CC2)n1 | 8%
73 | Cc1cc(Cl)cc2c1NC(=O)C21NC(CCC(=O)O)[C@H]2C(=O)N(Cc3ccccc3Cl)C(=O)[C@H]21 (some centres undefined) | -22%
74 | CCN(CC)C(=O)c1cc(C)n(-c2ccc3c(c2)OCCO3)c1C | -3%
75 | N=C(N)NCc1ccc(COCc2ccccc2)cc1 | 17%

Row | SMILES | % Inhibition
76 | Cn1nccc1C(=O)N(C1CCCCC1)C1CCCCC1 | -2%
77 | Cc1cnn(Cc2cc(C(=O)N(C)Cc3nc4ccccc4n3C)no2)c1 | 7%
78 | O=C(OC1CCCC1)C1CCCCC1C(=O)N1CCc2ccccc21 (centres undefined) | 10%
79 | Cc1nn(-c2ccccc2)c2nc(Cc3ccccc3)nc(N3CCCN(C(=O)NC4CCCCC4)CC3)c12 | 8%
80 | O=C(CN1CCC2(CC1)NC(c1ccccn1)=NO2)N1CCN(c2ccc(F)cc2)CC1 | 1%
81 | O=C1CC(c2ccccc2)N2N=C(N3C(=O)C4CC=CCC4C3=O)NC2=N1 (centres undefined) | -3%
82 | CN(CCOc1ccc(Cl)cc1Cl)[C@H]1CCS(=O)(=O)C1 | 5%
83 | C[C@H]1CN(Cc2ccccc2)CC2(CCN(C(=O)N(C)C)CC2)O1 | 10%
84 | CS(=O)(=O)N1CC[C@H](N(C(=O)NCCc2ccccc2)C2CCOCC2)C1 | -10%
85 | Cc1cc(C(=O)NCCCn2cccn2)nc(N2CCOCC2)n1 | 5%
86 | CCN1C(=O)c2ccccc2N2C(=O)CC[C@@]12C(=O)Nc1cccc(OC)c1 | 96%
87 | Cc1ccc2c(c1)N(C(=O)c1c[nH]c(C)cc1=O)CCC2 | -3%
88 | O=C(c1ccc(-n2cccn2)cc1)N1CCN(c2ccccc2O)CC1 | 11%
89 | O=C1N[C@H]2C[C@@H](C(=O)NC[C@H]3O[C@H](CCOc4cc(-c5ccccc5)ccc41)CC[C@@H]3O)N(Cc1ccc3c(c1)OCO3)C2 | 12%
90 | C[n+]1cc(-c2ccc3ccccc3n2)c(C#N)c2ccccc21 | 6%
91 | Nc1nc2ccc(N3CCCC3)cc2s1 | 26%
92 | Oc1ccc2ncccc2c1[C@@H](Nc1ccccn1)c1cccc(Br)c1 | 77%
93 | O=C(c1c[nH]c2ccc(Br)cc12)N1CCC[C@H]1c1ccc2c(c1)OCCO2 | 13%
94 | COCCCn1c(=O)c2ccccc2n(CC(=O)N2CCc3ccccc32)c1=O | -19%
95 | C#CCCCOc1cccnc1N1CCC(OC)CC1 | -3%
96 | COc1cc(OC)c(NC(=O)[C@H]2CCCN(c3nc4ccccc4[nH]c3=O)C2)cc1Cl | 13%
97 | NC(=O)NC(=O)COc1ccc(Br)cc1 | 7%
98 | CCn1cc(C(=O)N(C2CCCCC2)C2CCCCC2)c(C)n1 | -13%
99 | O=C(Nc1ccc(N2CCC(Cc3ccccc3)CC2)cc1C(=O)O)c1ccc(F)cc1 | -18%
